# From the supplement of paper PMC8728848
# This is one part of the list.
# B1: MPA (Maclura pomifera) (protein)
# chain: GVTFDDGAYTGIREINFEYNSETAIGGLRVTYDLNGMPFVAEDHKSFITGFKPVKISLEFPSEYIVEVSGYVGKVEGYTVIRSLTFKTNKQTYGPYGVTNGTPFSLPIENGLIVGFKGSIGYWLDYFSIYLSLNGPNGKSQSIIVGPWGDRVTN
# Legend:
# Assay in all cases: glycan array binding signal (z-score within array); higher = stronger binding
# Conditions in all cases: glycan notation: IUPAC condensed, linker removed
# [1] = target: Fuc(a1-3)[Gal(b1-4)]GlcNAc
# Procedure, shortened: (§1)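 The binding signal is a Z-score computed within each array and averaged over linkers. Arrays of the same protein sequence at different concentrations or buffers were also averaged together. Data originate from 3228 arrays in the Consortium for Functional Glycomics database, kept only where the protein sequence was available.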
# [2] = target: Fuc(a1-3)[Gal(b1-4)]GlcNAc(b1-4)Gal(b1-4)[Fuc(a1-3)]GlcNAc
# Procedure, shortened: as §1
# [3] = target: Fuc(a1-3)[Gal(b1-4)]GlcNAc(b1-4)Gal(b1-4)[Fuc(a1-3)]GlcNAc(b1-4)Gal(b1-4)[Fuc(a1-3)]GlcNAc
# Procedure, shortened: as §1
# [4] = target: Fuc(a1-3)[Gal3S(b1-4)]GlcNAc
# Procedure, shortened: as §1
# [5] = target: Fuc(a1-3)[GalNAc(b1-4)]GlcNAc
# Procedure, shortened: as §1
# [6] = target: Fuc(a1-4)GlcNAc
# Procedure, shortened: as §1
# [7] = target: Fuc(b1-3)GlcNAc
# Procedure, shortened: as §1
# [8] = target: Gal(a1-2)Gal
# Procedure, shortened: as §1
# [9] = target: Gal(a1-3)Gal
# Procedure, shortened: as §1
# [10] = target: Gal(a1-3)Gal(b1-3)GlcNAc
# Procedure, shortened: as §1
# [11] = target: Gal(a1-3)Gal(b1-4)Glc
# Procedure, shortened: as §1
# [12] = target: Gal(a1-3)Gal(b1-4)GlcNAc
# Procedure, shortened: as §1
# [13] = target: Gal(a1-3)Gal(b1-4)[Fuc(a1-3)]GlcNAc
# Procedure, shortened: as §1
# [14] = target: Gal(a1-3)GalNAc
# Procedure, shortened: as §1
# [15] = target: Gal(a1-3)[Gal(a1-4)]Gal(b1-4)GlcNAc
# Procedure, shortened: as §1
# [16] = target: Gal(a1-4)Gal(b1-4)Glc
# Procedure, shortened: as §1
# [17] = target: Gal(a1-4)Gal(b1-4)GlcNAc
# Procedure, shortened: as §1
# [18] = target: Gal(a1-4)GlcNAc
# Procedure, shortened: as §1
# [19] = target: Gal(a1-6)Glc
# Procedure, shortened: as §1
# [20] = target: Gal(b1-2)Gal
# Procedure, shortened: as §1
# [21] = target: Gal(b1-3)Gal
# Procedure, shortened: as §1
# [22] = target: Gal(b1-3)GalNAc
# Procedure, shortened: as §1
# [23] = target: Gal(b1-3)GalNAc(b1-3)Gal(a1-4)Gal(b1-4)Glc
# Procedure, shortened: as §1
# [24] = target: Gal(b1-3)GalNAc(b1-4)Gal(b1-4)Glc
# Procedure, shortened: as §1
# [25] = target: Gal(b1-3)GalNAc(b1-4)[Neu5Ac(a2-3)]Gal(b1-4)Glc
# Procedure, shortened: as §1
# [26] = target: Gal(b1-3)GlcNAc
# Procedure, shortened: as §1
# [27] = target: Gal(b1-3)GlcNAc(b1-3)Gal(b1-4)Glc
# Procedure, shortened: as §1
# [28] = target: Gal(b1-3)GlcNAc(b1-3)Gal(b1-4)GlcNAc
# Procedure, shortened: as §1
# [29] = target: Gal(b1-3)[Fuc(a1-4)]GlcNAc
# Procedure, shortened: as §1
# [30] = target: Gal(b1-3)[Fuc(a1-4)]GlcNAc(b1-3)Gal(b1-4)GlcNAc
# Procedure, shortened: as §1
# [31] = target: Gal(b1-3)[Fuc(a1-4)]GlcNAc(b1-3)Gal(b1-4)[Fuc(a1-3)]GlcNAc
# Procedure, shortened: as §1
# [32] = target: Gal(b1-3)[GlcNAc(b1-6)]GalNAc
# Procedure, shortened: as §1
# [33] = target: Gal(b1-3)[Neu5Ac(a2-6)]GalNAc
# Procedure, shortened: as §1
# [34] = target: Gal(b1-3)[Neu5Ac(a2-6)]GlcNAc(b1-6)Gal(b1-4)Glc
# Procedure, shortened: as §1
# [35] = target: Gal(b1-3)[Neu5Ac(b2-6)]GalNAc
# Procedure, shortened: as §1
# [36] = target: Gal(b1-4)GalNAc(a1-3)[Fuc(a1-2)]Gal(b1-4)GlcNAc
# Procedure, shortened: as §1
# [37] = target: Gal(b1-4)GalNAc(b1-3)[Fuc(a1-2)]Gal(b1-4)GlcNAc
# Procedure, shortened: as §1
# [38] = target: Gal(b1-4)Glc
# Procedure, shortened: as §1
# [39] = target: Gal(b1-4)Glc6S
# Procedure, shortened: as §1
# [40] = target: Gal(b1-4)GlcNAc
# Procedure, shortened: as §1
# [41] = target: Gal(b1-4)GlcNAc(b1-2)Man(a1-3)[Gal(b1-4)GlcNAc(b1-2)Man(a1-6)]Man(b1-4)GlcNAc(b1-4)GlcNAc
# Procedure, shortened: as §1
# [42] = target: Gal(b1-4)GlcNAc(b1-3)Gal(b1-4)Glc
# Procedure, shortened: as §1
# [43] = target: Gal(b1-4)GlcNAc(b1-3)Gal(b1-4)GlcNAc
# Procedure, shortened: as §1
# [44] = target: Gal(b1-4)GlcNAc(b1-3)Gal(b1-4)GlcNAc(b1-3)Gal(b1-4)GlcNAc
# Procedure, shortened: as §1
# [45] = target: Gal(b1-4)GlcNAc(b1-3)Gal(b1-4)[Fuc(a1-3)]GlcNAc(b1-3)Gal(b1-4)[Fuc(a1-3)]GlcNAc
# Procedure, shortened: as §1
# [46] = target: Gal(b1-4)GlcNAc(b1-3)GalNAc
# Procedure, shortened: as §1
# [47] = target: Gal(b1-4)GlcNAc(b1-3)[Gal(b1-4)GlcNAc(b1-6)]GalNAc
# Procedure, shortened: as §1
# [48] = target: Gal(b1-4)GlcNAc(b1-6)Gal(b1-4)GlcNAc(b1-6)GalNAc
# Procedure, shortened: as §1
# [49] = target: Gal(b1-4)GlcNAc(b1-6)GalNAc
# Procedure, shortened: as §1
# [50] = target: Gal(b1-4)GlcNAc(b1-6)[Gal(b1-3)]GalNAc
# Procedure, shortened: as §1
# [51] = target: Gal3S(b1-3)GalNAc
# Procedure, shortened: as §1
# [52] = target: Gal3S(b1-3)GlcNAc
# Procedure, shortened: as §1
# [53] = target: Gal3S(b1-3)[Fuc(a1-4)]GlcNAc
# Procedure, shortened: as §1
# [54] = target: Gal3S(b1-4)Glc
# Procedure, shortened: as §1
# [55] = target: Gal3S(b1-4)Glc6S
# Procedure, shortened: as §1
# [56] = target: Gal3S(b1-4)GlcNAc
# Procedure, shortened: as §1
# [57] = target: Gal3S(b1-4)GlcNAc6S
# Procedure, shortened: as §1
# [58] = target: Gal3S6S(b1-4)GlcNAc
# Procedure, shortened: as §1
# [59] = target: Gal3S6S(b1-4)GlcNAc6S
# Procedure, shortened: as §1
# [60] = target: Gal4S(b1-4)GlcNAc
# Procedure, shortened: as §1
# [61] = target: Gal4S6S(b1-4)GlcNAc
# Procedure, shortened: as §1
# [62] = target: Gal6S(b1-4)Glc
# Procedure, shortened: as §1
# [63] = target: Gal6S(b1-4)Glc6S
# Procedure, shortened: as §1
# [64] = target: Gal6S(b1-4)GlcNAc
# Procedure, shortened: as §1
# [65] = target: GalNAc(a1-3)Gal
# Procedure, shortened: as §1
# [66] = target: GalNAc(a1-3)GalNAc
# Procedure, shortened: as §1
# [67] = target: GalNAc(b1-3)Gal(a1-4)Gal(b1-4)GlcNAc
# Procedure, shortened: as §1
# [68] = target: GalNAc(b1-3)GalNAc
# Procedure, shortened: as §1
# [69] = target: GalNAc(b1-4)GlcNAc
# Procedure, shortened: as §1
# [70] = target: Glc(a1-4)Glc
# Procedure, shortened: as §1
# [71] = target: Glc(a1-6)Glc(a1-6)Glc
# Procedure, shortened: as §1
# [72] = target: Glc(b1-4)Glc
# Procedure, shortened: as §1
# [73] = target: Glc(b1-6)Glc
# Procedure, shortened: as §1
# [74] = target: GlcA(b1-3)Gal
# Procedure, shortened: as §1
# [75] = target: GlcA(b1-6)Gal
# Procedure, shortened: as §1
# [76] = target: GlcNAc(a1-3)Gal(b1-4)GlcNAc
# Procedure, shortened: as §1
# [77] = target: GlcNAc(a1-6)Gal(b1-4)GlcNAc
# Procedure, shortened: as §1
# [78] = target: GlcNAc(b1-2)Gal(b1-3)GalNAc
# Procedure, shortened: as §1
# [79] = target: GlcNAc(b1-2)Man(a1-3)[GlcNAc(b1-2)Man(a1-6)]Man(b1-4)GlcNAc(b1-4)GlcNAc
# Procedure, shortened: as §1
# [80] = target: GlcNAc(b1-3)Gal
# Procedure, shortened: as §1
# [81] = target: GlcNAc(b1-3)Gal(b1-3)GalNAc
# Procedure, shortened: as §1
# [82] = target: GlcNAc(b1-3)Gal(b1-4)Glc
# Procedure, shortened: as §1
binder,measurement,setting,value
B1,glycan array binding signal (z-score),[1],-0.216
same,glycan array binding signal (z-score),[2],-0.211
same,glycan array binding signal (z-score),[3],-0.211
same,glycan array binding signal (z-score),[4],-0.178
same,glycan array binding signal (z-score),[5],-0.213
same,glycan array binding signal (z-score),[6],-0.223
same,glycan array binding signal (z-score),[7],-0.22
same,glycan array binding signal (z-score),[8],-0.234
same,glycan array binding signal (z-score),[9],0.155
same,glycan array binding signal (z-score),[10],-0.224
same,glycan array binding signal (z-score),[11],-0.225
same,glycan array binding signal (z-score),[12],-0.177
same,glycan array binding signal (z-score),[13],-0.158
same,glycan array binding signal (z-score),[14],2.28
same,glycan array binding signal (z-score),[15],-0.16
same,glycan array binding signal (z-score),[16],-0.24
same,glycan array binding signal (z-score),[17],-0.24
same,glycan array binding signal (z-score),[18],2.68
same,glycan array binding signal (z-score),[19],1.01
same,glycan array binding signal (z-score),[20],-0.224
same,glycan array binding signal (z-score),[21],0.227
same,glycan array binding signal (z-score),[22],3.3
same,glycan array binding signal (z-score),[23],-0.24
same,glycan array binding signal (z-score),[24],-0.246
same,glycan array binding signal (z-score),[25],-0.247
same,glycan array binding signal (z-score),[26],-0.232
same,glycan array binding signal (z-score),[27],-0.243
same,glycan array binding signal (z-score),[28],-0.244
same,glycan array binding signal (z-score),[29],-0.229
same,glycan array binding signal (z-score),[30],-0.224
same,glycan array binding signal (z-score),[31],-0.217
same,glycan array binding signal (z-score),[32],-0.242
same,glycan array binding signal (z-score),[33],-0.246
same,glycan array binding signal (z-score),[34],-0.244
same,glycan array binding signal (z-score),[35],-0.247
same,glycan array binding signal (z-score),[36],-0.244
same,glycan array binding signal (z-score),[37],-0.249
same,glycan array binding signal (z-score),[38],-0.209
same,glycan array binding signal (z-score),[39],-0.217
same,glycan array binding signal (z-score),[40],-0.198
same,glycan array binding signal (z-score),[41],-0.202
same,glycan array binding signal (z-score),[42],-0.234
same,glycan array binding signal (z-score),[43],-0.225
same,glycan array binding signal (z-score),[44],-0.249
same,glycan array binding signal (z-score),[45],-0.227
same,glycan array binding signal (z-score),[46],5.97
same,glycan array binding signal (z-score),[47],-0.166
same,glycan array binding signal (z-score),[48],-0.17
same,glycan array binding signal (z-score),[49],-0.161
same,glycan array binding signal (z-score),[50],-0.158
same,glycan array binding signal (z-score),[51],4.41
same,glycan array binding signal (z-score),[52],-0.237
same,glycan array binding signal (z-score),[53],-0.183
same,glycan array binding signal (z-score),[54],-0.228
same,glycan array binding signal (z-score),[55],-0.222
same,glycan array binding signal (z-score),[56],-0.225
same,glycan array binding signal (z-score),[57],-0.228
same,glycan array binding signal (z-score),[58],-0.233
same,glycan array binding signal (z-score),[59],-0.23
same,glycan array binding signal (z-score),[60],-0.232
same,glycan array binding signal (z-score),[61],-0.221
same,glycan array binding signal (z-score),[62],-0.234
same,glycan array binding signal (z-score),[63],-0.223
same,glycan array binding signal (z-score),[64],-0.219
same,glycan array binding signal (z-score),[65],-0.205
same,glycan array binding signal (z-score),[66],-0.212
same,glycan array binding signal (z-score),[67],-0.241
same,glycan array binding signal (z-score),[68],6.31
same,glycan array binding signal (z-score),[69],-0.232
same,glycan array binding signal (z-score),[70],-0.239
same,glycan array binding signal (z-score),[71],-0.243
same,glycan array binding signal (z-score),[72],-0.238
same,glycan array binding signal (z-score),[73],-0.239
same,glycan array binding signal (z-score),[74],-0.245
same,glycan array binding signal (z-score),[75],-0.238
same,glycan array binding signal (z-score),[76],-0.25
same,glycan array binding signal (z-score),[77],-0.14
same,glycan array binding signal (z-score),[78],5.63
same,glycan array binding signal (z-score),[79],-0.246
same,glycan array binding signal (z-score),[80],0.265
same,glycan array binding signal (z-score),[81],3.46
same,glycan array binding signal (z-score),[82],-0.241
